Hit rate of the full screen: of about 48,000 compounds, about 450 (0.94%) were called active. Another 19% or so got no clear call; they are omitted. Calls follow the shape of the dose curve; as a rule, active = well fitted inhibition curve with a large enough effect; inconclusive = small, poorly fitted or top-dose-only effect; inactive = no such curve, though single readings can be large or run the other way. Some of the results follow.
experiment: Primary qHTS for Identification of Small Molecule Inhibitors of Huntingtin Promoter Activity; details: HEK293 HTT promoter firefly luciferase reporter (activity 0% = vehicle and -100% = no light), 24 h; series mostly up to 57.5 µM; activity change, negative = inhibition: at the top concentration; also: nearly all actives have a fitted effect of over 50% in size
Method in brief: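 Firefly luciferase signal from promoter-reporter HEK293 cells was scaled between vehicle (0%) and zero RLU (-100%). Compounds were tested at final concentrations of up to 57.5 uM over 24 h at 37 degrees C. PTC124 at 50 uM final served as control inhibitor.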

Activity change, negative = inhibition, inactive:
CC1CCCN(C(=O)CSc2c3c(nc4cc(Cl)ccc24)CCCC3)C1 (configuration not stated) -14%, O=C(Nc1cc(-c2nc3cc(Cl)ccc3o2)ccc1Cl)c1ccco1 53.1%, CCc1ccc(NC(=O)CSc2nc(=O)n(Cc3ccccn3)c3c2CCC3)cc1 -0.249%, COc1cccc(C2C(C(=O)Nc3ccc(C)cc3C)=C(C)Nc3c(C(=O)Nc4ccccc4)cnn32)c1 (configuration not stated) -19.5%, NS(=O)(=O)c1cc(C(=O)O)c(NCc2ccco2)cc1Cl, COc1ccc(NC(=O)c2cc(S(=O)(=O)N3CCOCC3)ccc2OC)cc1 -14.6%, CCc1cccc(C)c1NS(=O)(=O)c1c(C(=O)N2CCC(C)CC2)c(C)n(C)c1C -26.2%, COc1ccc(OC)c(NS(=O)(=O)c2ccc3c(c2)C(C)(C)C(=O)N3C)c1 -0.336%, COc1cccc(CNC(=O)c2ccc3c(c2)c(C)c(C)n3Cc2ccccc2)c1 9.11%, COc1ccc(CNC(=O)c2cc3cc4cc(OC)ccc4nc3o2)cc1 28.5%, Cc1nnc(N2CCC(C(=O)NC3CCCCC3)CC2)c2nn(-c3ccccc3)c(C)c12 -4.47%, NC(=O)C1CCN(C(=O)c2ccc(NC(=O)c3nsc4ccccc34)cc2)CC1 -26.6%, Clc1cccc(-c2ccc(CNCCSc3nnnn3-c3ccccc3)o2)c1 -11.3%, O=C(c1ccccc1)N1CCN(CCc2ccncc2)CC1 -18%, Cc1cc(C)c(NC(=O)c2sc3nc(C)cc(C)c3c2NC(=O)c2ccccc2)c(C)c1 -9.28%, CCOc1ccc(CCNC(=O)c2cn(C)c3ccc(S(=O)(=O)N4CCCCC4)cc3c2=O)cc1OCC 19.1%, COc1ccccc1C(=O)Nc1cccc(C(=O)OCc2cc(=O)n3cc(C)sc3n2)c1 -16.8%, O=C(CCn1cnc2ccccc2c1=O)NCc1ccccc1Cl -10.7%, CCc1nc2nc(C)c(NS(=O)(=O)c3ccc(C(C)(C)C)cc3)c(=O)n2[nH]1 -6%, COc1ccc(-c2nc(C)c(CCNS(=O)(=O)c3cc(Cl)ccc3Cl)s2)cc1 -25.3%, CCc1nn2c(=O)cc(COC(=O)COc3ccc(OC)cc3)nc2s1 -13.8%, CCC(=O)N1c2ccccc2CC1C(=O)NCCc1ccc(OC)c(OC)c1 (configuration not stated) -13.5%, Cc1c(C(=O)Nc2cccc(C(F)(F)F)c2)oc2ccc3c(c12)C(=O)CC(C)(C)O3 20.9%, COc1cccc(-n2c(=O)c3sc4ccccc4c3n(CC(=O)NC3CCCCC3)c2=O)c1 22.8%, Cc1c(NC(=O)c2ccc(-c3cccc([N+](=O)[O-])c3)o2)cccc1-c1nc2cc(Cl)ccc2o1 11.5%, CCOC(=O)c1cc2c(=O)n3ccccc3nc2n(CCOC)c1=NC(=O)c1c(-c2ccccc2Cl)noc1C -9.24%, Cn1c(=O)oc2cc(S(=O)(=O)NCCC(=O)Nc3ccc(F)cc3F)ccc21 12.4%, Cc1cc(OCC(=O)Nc2ncn[nH]2)ccc1Cl -2.4%, CCN(CC)S(=O)(=O)c1ccc(OC)c(-n2cnnn2)c1 0%, O=C(NCCC1=CCCCC1)c1ccc2c(c1)N(Cc1cccc(Cl)c1)C(=O)c1ccccc1S2=O (configuration not stated) -23%, CCCCC(=O)NC1CC(=O)N(c2ccc3c(c2)OCCO3)C1 (configuration not stated) -14.7%, CC(C)CCNC(=O)Cc1ccc(NC(=O)N2CCCCc3ccccc32)cc1 -12.3%, CCCCn1c(SCC(=O)c2ccccc2)nc2c(sc3ccccc32)c1=O -5.82%, CCN(C(=O)Cn1nnc2sc3c(c2c1=O)CCC(C(C)(C)C)C3)c1cccc(C)c1 (configuration not stated) -13.7%, CCc1ccc(CNC(=O)c2nn(-c3ccc(C)cc3)c(=O)c3c2c2ccccc2n3C)cc1 -12.4%, CC(=O)c1ccc(N2CCN(C(=O)C3CCCN(S(=O)(=O)c4ccc(Br)s4)C3)CC2)cc1 (configuration not stated) 0%, Cc1ccc(-n2nc3ccc(NC(=O)COc4ccccc4C)cc3n2)cc1 27.1%, CCC1CN(S(=O)(=O)c2cc(-c3cc(C)no3)ccc2C)c2cc(C)ccc2O1 (configuration not stated) -13.3%, Cc1ccc(-n2nc(CO)c(C(=O)NCCCCc3ccccc3)n2)cc1C 4.82%, Cc1cc(C)c(NC(=O)Cn2nc(-c3ccncc3)ccc2=O)c(C)c1 -4.13%, CCCn1c(=O)n(-c2ccccc2Cl)c(=O)c2sc3ccccc3c21 -8.97%, COc1cccc(Cn2c(CNC(=O)Cc3cccc(C)c3)nc3cccnc32)c1 -2.04%, Cc1ccccc1NC(=O)Cn1c(=O)oc2cc(Br)ccc21 -16.6%, COc1ccc(N(CC(=O)Nc2cccc(Cl)c2C)S(=O)(=O)c2c(C)nn(C)c2C)cc1 -24.8%, Cc1ccc(NC(=O)c2cccc3c2C(=O)N(C2CCCCC2)C3)c(C)c1 -4.15%, Cc1c(C)n(C)c2ccc(C(=O)NCCCN3CCCCC3C)cc12 (configuration not stated) -3.99%, O=C(c1cc2c(s1)-c1ccccc1OC2)N1CCN(c2ccccc2F)CC1 3%, Cc1ccc(C)c(NC(=O)Cn2cc(C(=O)c3ccco3)c3ccccc32)c1 -58.3%, CCOC(=O)C1CCCN(c2cc(C)nc3c(-c4ccccc4OC)c(C)nn23)C1 (configuration not stated) -39.7%, CCc1c(C)sc(NC(=O)c2cc(-c3cccc(Cl)c3)on2)c1C#N -3.26%, COc1ccc(C)c2sc(N(Cc3cccnc3)C(=O)C3CCCCC3)nc12 -27.6%, CCCN(CCC)CCCNC(=O)C1CCN(S(=O)(=O)CC)CC1 -17.2%, CCCn1cc(S(=O)(=O)c2ccccc2)c(=O)c2cc(F)c(N3CCCC(C)C3)cc21 (configuration not stated) -6.63%, COc1ccc(C)cc1NC(=O)c1c(C)oc2ncn(CC(C)C)c(=O)c12 -16.3%, Cc1ccc(CSCC(=O)N2CCN(c3ccccc3F)CC2)cc1 -20.2%, Cc1ccc(S(=O)(=O)CC(=O)Nc2sc3c(c2C#N)CCCC3)cc1 -14.4%, CCn1cc(CCC(=O)NCc2ccccc2OC)c2ccccc21 -25.4%, CC1=C(C(=O)Nc2ccccc2)C(c2cccnc2)n2nc(SCc3ccccc3Cl)nc2N1 (configuration not stated) -4.26%, CCOC(=O)Cn1c(=O)n(C2CCCCC2)c2nc(-c3cccc(F)c3)nc(C(N)=O)c21 -12.6%, CC(C)c1c(C(=O)Nc2ccccc2)c(-c2ccccc2)c(-c2ccc(F)cc2)n1CC[C@H](O)C[C@@H](O)CC(=O)O 6%, Cc1ccc(S(=O)(=O)c2cc3cc(C(=O)O)ccc3oc2=O)cc1 -18.5%, CCOC(=O)c1c(NC(=O)COc2cc(C)ccc2C(C)C)sc(C)c1C -4.33%
